The campaign covered roughly 39,000 compounds. About 220 (0.56%) showed activity. Some of the results follow.
system: Escherichia coli K-12 BW25113; experiment: relative growth (OD600 normalised to plate interquartile mean) (fraction); higher = less growth inhibition, active = 0.2 or less; settings: 50 µM; LB; incubation time: overnight (16-24 h)
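Also: static incubation at 37 °C against the wild-type strain, values averaged over two biological replicates.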

Compound | relative growth
C[C@H](CO)N1C[C@H](C)[C@H](CN(C)C(=O)Nc2ccccc2)Oc2ccc(NC(=O)Nc3cccc4ccccc34)cc2C1=O | inactive: 1.01
C[C@@H](CO)N1CC[C@H](CN(C)Cc2ccc(Oc3ccccc3)cc2)Oc2c(NC(=O)c3ccncc3)cccc2C1=O | inactive: 1.02
NC(=O)c1cc[n+](CC2=C(C(=O)[O-])N3C(=O)C(NC(=O)Cc4cccs4)C3SC2)cc1 (stereo unspecified) | inactive: 0.634
Cc1noc(C)c1S(=O)(=O)Nc1ccc2c(c1)C(=O)N([C@@H](C)CO)C[C@@H](C)[C@H](CN(C)S(C)(=O)=O)OCCCC[C@@H](C)O2 | inactive: 0.993
Cc1ccc(S(=O)(=O)Nc2ccc3c(c2)C(=O)N([C@H](C)CO)C[C@@H](C)[C@H](CN(C)C(=O)c2ccccc2)OCCCC[C@@H](C)O3)cc1 | inactive: 1
Cc1ccccc1S(=O)(=O)N1C[C@@H](O)COC[C@H]2O[C@@H](CC(=O)N3CCOCC3)CC[C@@H]21 | inactive: 0.994
O=C(C[C@H]1CC[C@H]2[C@@H](COC[C@H](O)CN2S(=O)(=O)c2cccc(Cl)c2)O1)N1CCOCC1 | inactive: 1
C[C@H]1CN([C@@H](C)CO)S(=O)(=O)c2ccc(-c3cccnc3)cc2O[C@H]1CN(C)C(=O)c1ccc2c(c1)OCO2 | inactive: 0.992
C[C@H]1CN([C@@H](C)CO)C(=O)c2cc(NS(=O)(=O)c3ccc(F)cc3)ccc2O[C@@H]1CN(C)C(=O)Nc1cccc2ccccc12 | inactive: 1.01
CC(C)NC(=O)N[C@@H]1C=C[C@H](CC(=O)NCCCN(C)C)O[C@H]1CO | inactive: 0.971
C[C@H]1CCCCO[C@H](CN(C)C(=O)CCC(F)(F)F)[C@@H](C)CN([C@@H](C)CO)C(=O)c2cc(NC(=O)c3ccccc3)ccc2O1 | inactive: 0.976
C[C@H](CO)N1C[C@H](C)[C@H](CN(C)Cc2ccc3c(c2)OCO3)Oc2ccc(NS(=O)(=O)c3cn(C)cn3)cc2C1=O | inactive: 0.987
CN(C)CCO[C@@H]1CC[C@@H]2[C@H]1OCCN2S(C)(=O)=O | inactive: 0.981
Cn1cnc(CCNC(=O)C[C@H]2CC[C@H]3[C@@H](COC[C@@H](O)CN3C(=O)Nc3ccc(Cl)cc3)O2)c1 | inactive: 0.953
C[C@H](CO)N1C[C@H](C)[C@H](CN(C)C(=O)Nc2cccc3ccccc23)OCc2cnnn2CCCC1=O | inactive: 1.01
COc1ccc(CN(C)C[C@H]2OCCCC[C@@H](C)Oc3ccc(NC(=O)CCCCCC(=O)Nc4ccccc4N)cc3C(=O)N([C@H](C)CO)C[C@@H]2C)cc1 | inactive: 0.978

Reference: the supplement of paper PMC9446081
